In publication PMC6919601, “Identification of Plasmodium dipeptidyl aminopeptidase allosteric inhibitors by high throughput screening” (PLoS ONE, 2019):
The campaign covered roughly 110,000 compounds. About 230 (0.21%) showed an effect of 50% or more. The list shows a part of the results.

These compounds were tested against DPAP1 (Plasmodium falciparum, UniProt Q8IIJ9) (assay: primary screen, percent inhibition; read by cleavage of a fluorogenic dipeptide substrate; higher = more effect of the substance).
Design: species or system P. falciparum D10 trophozoite lysates; single well
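Further: 30 min substrate incubation versus DMSO and 10 µM JCP410 controls.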

DPAP1, sequence (Q8IIJ9 whole entry, looked up): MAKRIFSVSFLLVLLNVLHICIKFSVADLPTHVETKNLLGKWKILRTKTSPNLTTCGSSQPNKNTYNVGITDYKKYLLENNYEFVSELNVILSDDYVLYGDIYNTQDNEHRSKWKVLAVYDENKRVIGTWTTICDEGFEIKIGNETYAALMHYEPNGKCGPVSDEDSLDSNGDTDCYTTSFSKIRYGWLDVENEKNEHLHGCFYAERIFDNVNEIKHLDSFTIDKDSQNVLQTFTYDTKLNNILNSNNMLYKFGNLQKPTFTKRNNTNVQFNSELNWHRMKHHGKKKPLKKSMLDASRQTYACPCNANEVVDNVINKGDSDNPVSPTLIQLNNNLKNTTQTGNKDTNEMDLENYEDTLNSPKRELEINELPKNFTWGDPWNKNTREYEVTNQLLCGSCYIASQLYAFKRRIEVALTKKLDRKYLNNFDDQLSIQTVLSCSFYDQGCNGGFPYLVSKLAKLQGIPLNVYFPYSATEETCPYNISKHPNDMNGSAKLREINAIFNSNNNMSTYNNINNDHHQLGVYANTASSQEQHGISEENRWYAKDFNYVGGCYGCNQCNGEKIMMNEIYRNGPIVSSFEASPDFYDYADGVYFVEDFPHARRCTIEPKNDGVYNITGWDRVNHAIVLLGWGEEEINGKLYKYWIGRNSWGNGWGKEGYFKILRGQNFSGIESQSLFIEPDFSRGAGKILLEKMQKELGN

Compound	% Inhibition @ 10 uM [%]
O=C(CCCn1c(=O)c2cccn2c2cccnc21)NCCc1ccccc1Cl	1.63
Cc1ccccc1CNCc1cccn1-c1nnc(N2CCC(C(=O)O)CC2)s1	-2.53
Cc1nc(N2CCCCC2)c(C#N)c(C)c1Cl	3.81
COc1cccc(Nc2nc(NCCO)c3ccccc3n2)c1	-3.65
O=C(NCc1ccco1)C1CCCN(S(=O)(=O)N2CCC3(CC2)OCCO3)C1 (stereo not drawn)	2.54
Oc1nc(Cc2ccccc2Cl)nc2c1nnn2Cn1nnc(-c2ccccc2)n1	-3.24
COc1cc(S(=O)(=O)N2CCC3(CC2)OCCO3)ccc1-n1cnnn1	1
COc1ccc(C2=NN(C(=O)CSCc3ccco3)C(c3cccc(OC)c3OC)C2)cc1 (stereo not drawn)	-7.08
Cc1ccc(S(=O)(=O)N(c2ccccc2)C(C)C2CC2)cc1 (stereo not drawn)	2.22
CN(CC(=O)N1CCN(Cc2ccccc2)CC1)S(=O)(=O)c1c[nH]cn1	-0.0309
O=C(Nc1ccccc1)c1cc(S(=O)(=O)Nc2cccnc2)ccc1Cl	5.73
CC12CCCc3c(O)cc(=O)n(c31)-c1ccccc12 (stereo not drawn)	0.722
CCOC(=O)C1CCCN(Cc2ccsc2)C1 (stereo not drawn)	0.708
NC(=O)c1c(NC(=O)c2ccccc2Cl)sc2c1CCCC2	-2.78
CCOc1ccccc1-n1cc2c(c1-c1ccccc1)c(=O)n(C)c(=O)n2C	-6.85
COc1ccc(O)c(C2=NN3C(C2)c2cccc(OC)c2OC32CCCC2)c1 (stereo not drawn)	0.0719
Oc1ccc(-c2[nH]ncc2Oc2ccccc2)c(O)c1	0.687
COc1ccc(NS(=O)(=O)c2cc(C(=O)O)c(Cl)cc2Cl)cc1	0.361
Cc1ccc2c(CNCc3cccc(F)c3)c(C(=O)O)n(Cc3ccccc3F)c2c1	5.45
Cc1nn2c(c1-c1cccc(Cl)c1)NCN(Cc1ccc(F)cc1)C2	-1.08
CCOC(=O)N1CCN(C2CCCCCC2)CC1	1.88
COc1cc2c(cc1OC)C(COc1ccccc1OC)N(C(=O)C1CC1)CC2 (stereo not drawn)	-4.64
Cc1ccc(C(=O)C2=C(O)C(=O)N(c3ncccn3)C2c2ccc(Cl)c(Cl)c2)o1 (stereo not drawn)	2.55
O=C(Nc1ccc2c(c1)OCO2)C1CC2CCC1C2 (stereo not drawn)	3.48
Cc1nn(Cc2ccccc2Cl)c(C)c1NC(=O)NC12CC3CC(CC(C3)C1)C2	-13.5
Cc1cc2c(cc1C)N(Cc1ccccc1)C1=NCCN12	5.2

Compound	% Inhibition @ 10 uM [%]
O=C(NC1CCN(Cc2ccccc2)CC1)c1cc(-c2ccccc2)[nH]n1	-3.12
COc1ccc(N(CC(=O)NCc2ccncc2)S(=O)(=O)c2ccccc2)cc1Cl	-0.312
O=C(Cn1cnc2c(nc3n2CCCCC3)c1=O)NCc1ccco1	0.721
Cc1ccsc1CN(C(=O)C(C)Oc1ccc(Cl)cc1Cl)C1CCS(=O)(=O)C1 (stereo not drawn)	3.77
Cc1cc([N+](=O)[O-])cc2c1NC(=O)C2=O	4.08
CSc1nc(-c2ccccc2)nc(N2CCOCC2)c1C(C)=O	-7.46
CCn1nccc1C(=O)Nc1ccc(C)cc1C	-6.48
O=C(Nc1ccc(Oc2ccccc2)cc1)c1ccc(NC(=O)C(F)(F)F)cc1	-1.95
Cc1ccc(C)n1-c1nnc(N2CCC(C(=O)NCCN3CCOCC3)CC2)s1	1.72
CC(C)=CCC[C@H](C)CCN1CCN(c2ccccc2)CC1	-0.603
Cc1nn(CC(=O)O)c(=O)c2c1sc1ccccc12	-0.0309
Cn1c(=O)c2sccc2n2c(CCC(=O)NCc3cccs3)nnc12	-1.01
C=C(C)COc1cc(O)c2c(=O)cc(-c3ccccc3)oc2c1	-1.6
Cc1ccc(S(=O)(=O)N2CCN(CCO)CC2)cc1-c1nnc2c3ccccc3c(C)nn12	-3.64
Cc1ccc(NC(=O)/C=C/c2ccc3c(c2)OCO3)cc1C	-2.12
CC(=O)Nc1cccc(NC(=O)COc2ccccc2C)c1	-1.42
CC(C)C[C@H](NC(=O)OCCC1CCCC1)C(=O)NCC#N	-3.04
O=C1NC(=O)C(=Cc2cn(-c3ccccc3)nc2-c2ccc(F)cc2)C(=O)N1	-6.08
CCOC(=O)C1=C(Cc2ccc(F)cc2)C(=O)c2ccccc2C1=O	9.64
COc1cccc2sc(N(CCCN(C)C)C(=O)c3ccc(Br)s3)nc12	-5.18
COc1ccccc1CNC(=O)C1CCN(S(=O)(=O)c2ccc3[nH]c4c(c3c2)CCCCC4)CC1	-1.7
COc1ccc(-c2csc(NC3=NCCCCC3)n2)cc1	-5.13
Cc1cc(Oc2nc3ccccn3c(=O)c2/C=C(\C#N)C(=O)NCc2ccco2)ccc1Cl	-6.23
Fc1cccc(F)c1CN1CCN(Cc2ccccc2)CC1	3.24
COc1ccc(C(=O)Nc2c3c(nn2-c2ccccc2C)CS(=O)C3)c(OC)c1 (stereo not drawn)	2.84
COc1ccc(C(=O)Nc2cc(OC)cc(OC)c2)cc1	7.34

Compound	% Inhibition @ 10 uM [%]
COc1cc(S(=O)(=O)NC(C)c2ccccc2)c(OC)cc1Cl (stereo not drawn)	4.63
CC(=O)OC1CCC2(C)C(=CCC3C2CCC2(C)C(C(C)=O)=C(C)CC32)C1 (stereo not drawn)	-2.58
Cc1ccc(C(=O)Nc2sc(C)c(C)c2C(N)=O)o1	5.14
CS(=O)(=O)N1CCN(Cc2ccccn2)CC1	-4.7
COCCNC(=O)CCn1nc(-c2ccc(Cl)cc2)ccc1=O	-3.58
CCCCOC(=O)C1C2c3ccccc3C(c3ccccc32)C1C(=O)O (stereo not drawn)	-0.415
O=C1c2ccccc2C(=O)N1CC(=O)n1nnc2ccccc21	2.7
CCN(CC)C(=O)Cn1cc(S(=O)(=O)Cc2cccc(C(F)(F)F)c2)c2ccccc21	4.29
Cc1ccc(C(=O)N[C@@H](Cc2cc(I)c(O)c(I)c2)C(=O)NCC#N)cc1	-6.46
CSc1nsc(SCC(=O)N2CCOCC2)n1	-4.75
CCOCCCn1c(=N)c(C(=O)NCc2ccccc2)cc2c(=O)n3cccc(C)c3nc21	3.6
CC(C)(C)NC(=O)CSc1ncccn1	-1.33
CCOc1ccc(NC(=O)CSCC(=O)Nc2cccc(C)c2C)cc1	-2.09
Brc1ccccc1-c1nnc2sc(-c3cc4ccccc4o3)nn12	4.47
CCN1CCN(C2CCN(Cc3ccccc3)CC2)CC1	1.57
COc1ccc(-n2c(SCC(=O)N3CCOCC3)nc3sc4c(c3c2=O)CCC4)cc1	9.91
CCOC(=O)c1sc2nc3c(cc2c1N)CCC3	-5.61
CS(=O)(=O)NCCOc1ccc(S(=O)(=O)NCCc2ccccc2)cc1	-2.19
CCCCN1C(=O)C(NC(=O)C2CCCCC2)(C(F)(F)F)C2=C1CC(C)(C)CC2=O (stereo not drawn)	1.91
CCCc1noc2c1C(=O)C(C(=O)OC)C(C)(C)C2 (stereo not drawn)	-4.43
CCCNC(=O)c1cc2c(=O)n3ccccc3nc2n1C	-1.55
CC(c1ccccc1)C1CC(=O)N(Cc2ccco2)C1=O (stereo not drawn)	-0.958
COc1ccc2nc(C)sc2c1NC(C)=O	-4.58
Fc1cccc(Cl)c1Cn1c(C2CCCO2)nc2ccccc21 (stereo not drawn)	-1.22
CC1(C)CNC(=O)c2sc(N)nc2C1	-3.44
Cc1nc(O)cc2c1[nH]c1ccccc12	4.33

Compound	% Inhibition @ 10 uM [%]
CCCCN(CCNC(=O)Cn1ncc2c3ccccc3nc-2c1O)Cc1ccco1	7.2
CC(C)C[C@H](NC(=O)OCc1ccccc1)C(=O)N[C@H](C#N)Cc1ccc(O)cc1	-10.1
Cc1ccc(Cl)cc1NC(=O)CN(c1ccc2c(c1)OCCO2)S(=O)(=O)c1ccccc1	2.63
O=c1[nH]c(=O)c2nc(Br)n(C3OC(CO)C(O)C3O)c2[nH]1 (stereo not drawn)	-10.4
COc1cc(OC)c(OC)cc1CN1CCN(Cc2ccccc2C(F)(F)F)CC1	-5.82
O=C(O)CCCn1c(=O)cc(O)c2ccccc21	1.03
Cc1ccc(C(=O)C2=C(O)C(=O)N(CC3CCCO3)C2c2cccc(Br)c2)o1 (stereo not drawn)	-15.4
CC1=C(C(=O)NCc2ccccc2)C(c2cccn2C)n2nnnc2N1 (stereo not drawn)	2.73
O=C(Nc1ccc2ccccc2c1)c1cccs1	-9.33
CC(C)CCOc1ccc(C2NC(=O)NC2=O)cc1 (stereo not drawn)	-2.63
CCN(CC)C(=O)Cc1ccc(OC)cc1	3.61
CCCOc1ccc(NCC(=O)Nc2ccc(C)cc2)cc1	10.6
CCC(Cc1ccccc1)NC(=O)c1cnc2ccc(S(=O)(=O)N3CCC(C)CC3)cc2c1O (stereo not drawn)	-3.78
O=C(Cc1ccccc1)Nc1ccc(NC(=O)Cc2ccccc2)cc1	2.6
O=C(CSc1nc2nccnc2c(=O)n1Cc1ccc2c(c1)OCO2)NCCc1ccccc1	-5.66
C=CCOc1c(Br)cc(CNCCO)cc1OC	6.98
CCc1ccc(-n2c(SCC(=O)NCC3CCCO3)nc3nnc(C)c-3c2N)cc1 (stereo not drawn)	22.7
COC(=O)c1cc(C)nc2c1c(C)nn2-c1ccccc1	-1.57
O=C(NCc1ccc(Cl)cc1)c1cccc2c1C(=O)N(C1CCCCC1)C2	0.708
Cc1nn(C)cc1CN(C)C(=O)c1cc2nc(-c3ccccc3)cc(C(F)(F)F)n2n1	4.59
Cc1ccccc1CNC(=O)CN(c1ccccc1Cl)S(=O)(=O)c1ccccc1	5.29
S=C1NCN(Cc2ccccc2)CN1C1CCCCC1	-5.62
CN(C)CCCNc1ncnc2c1c(-c1ccccc1)cn2-c1ccc(F)cc1	6.44
CCc1ccccc1NC(=O)CSCc1ccccc1	-3.11
